Test results taken from the supplement of paper PMC9446081.
Among all 39,000 compounds or so, about 220 (0.56%) showed activity. This is one part of the list.

tested on: Escherichia coli K-12 BW25113; test: relative growth (OD600 normalised to plate interquartile mean) (fraction); higher = less growth inhibition, active = 0.2 or less; conditions: 50 µM; LB; incubation time: overnight (16-24 h)
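Further: static incubation at 37 °C against the wild-type strain, values averaged over two biological replicates.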

| Structure (SMILES) | relative growth |
| --- | --- |
| COc1ccc(S(=O)(=O)Nc2ccc3c(c2)C(=O)N([C@H](C)CO)C[C@@H](C)[C@@H](CN(C)Cc2ccc(-c4ccccc4)cc2)O3)cc1 | inactive: 1.03 |
| Cc1noc(C)c1NC(=O)N(C)C[C@@H]1Oc2cc(C#CCN(C)C)ccc2S(=O)(=O)N([C@@H](C)CO)C[C@H]1C | inactive: 1 |
| Nc1ncn([C@@H]2O[C@H](CO)[C@@H](O)[C@H]2O)c(=O)n1 | inactive: 0.458 |
| CO[C@@H]1CN(C)C(=O)c2cc(NS(=O)(=O)CC(F)(F)F)ccc2OC[C@H](C)N(C(=O)NC(C)C)C[C@@H]1C | inactive: 0.971 |
| CNC[C@@H]1OCCCC[C@@H](C)Oc2ccc(NS(=O)(=O)c3cn(C)cn3)cc2C(=O)N([C@@H](C)CO)C[C@@H]1C | inactive: 0.999 |
| COc1ccc(CN(C)C[C@H]2OCCCC[C@H](C)Oc3ccc(NS(=O)(=O)c4ccccc4)cc3C(=O)N([C@@H](C)CO)C[C@@H]2C)cc1 | inactive: 1 |
| COc1ccc(NC(=O)N(C)C[C@H]2OCCCC[C@@H](C)Oc3ccc(NS(=O)(=O)c4ccc(F)cc4)cc3C(=O)N([C@@H](C)CO)C[C@@H]2C)cc1 | inactive: 0.985 |
| C[C@H]1CN([C@@H](C)CO)C(=O)c2cc(NS(=O)(=O)c3cccs3)ccc2O[C@H]1CN(C)S(C)(=O)=O | inactive: 0.971 |
| NC(=O)C(C(N)=O)[C@H]1CCS(=O)(=O)C1 | inactive: 1.01 |
| Cc1noc(C)c1NC(=O)Nc1ccc2c(c1)C(=O)N([C@H](C)CO)C[C@H](C)[C@@H](CN(C)S(=O)(=O)c1ccc(F)cc1)OCCCC[C@H](C)O2 | inactive: 1.01 |
| O=C(N[C@H]1C=C[C@H](CC(=O)N2CCOCC2)O[C@H]1CO)c1ccccn1 | inactive: 0.99 |
| COc1ccc(NC(=O)Nc2ccc3c(c2)C(=O)N([C@@H](C)CO)C[C@H](C)[C@H](CN(C)S(=O)(=O)c2cccs2)OCCCC[C@@H](C)O3)cc1 | inactive: 1.04 |
| CNC(=O)C(=O)NC[C@H]1CCCN1S(=O)(=O)c1cccs1 | inactive: 0.993 |
| Nc1ccc2cc3ccc(N)cc3nc2c1.O=S(=O)(O)O | inactive: 0.477 |
| COc1cc2nc(N3CCN(C(=O)C4COc5ccccc5O4)CC3)nc(N)c2cc1OC.CS(=O)(=O)O (configuration not stated) | inactive: 1.05 |
| C[C@H](CO)N1C[C@H](C)[C@@H](CN(C)S(=O)(=O)c2ccc(F)cc2)Oc2ccc(NS(=O)(=O)c3ccccc3)cc2CC1=O | inactive: 0.972 |
| C[C@@H]1CN([C@@H](C)CO)S(=O)(=O)c2ccc(-c3cncnc3)cc2O[C@@H]1CN(C)C(=O)NC1CCCC1 | inactive: 0.985 |
| C[C@H]1CCCCO[C@@H](CN(C)C(=O)Nc2ccccc2)[C@@H](C)CN([C@@H](C)CO)C(=O)c2cc(NC(=O)c3ccncc3)ccc2O1 | inactive: 0.968 |
| Cc1cc(O)n(C[C@H]2CCCO2)c(=O)c1C#N | inactive: 1.03 |
| C[C@@H]1CCCCO[C@@H](CN(C)S(=O)(=O)c2ccc(Cl)cc2)[C@H](C)CN([C@H](C)CO)C(=O)c2cc(NS(=O)(=O)c3ccc(F)cc3)ccc2O1 | inactive: 1.01 |
| COCC(=O)N1[C@@H]2c3ccc(C4=CCCCC4)c(=O)n3C[C@@H]2[C@@H](CO)[C@@H]1C(=O)N1CCOCC1 | inactive: 1.02 |

| Structure (SMILES) | relative growth |
| --- | --- |
| COC(=O)C[C@@H]1CC[C@@H]2[C@H](COc3ccc(NS(=O)(=O)c4ccccc4Cl)cc3C(=O)N2C)O1 | inactive: 0.958 |
| COc1ccc2c3c([nH]c2c1)[C@H](CO)N(CC1CCCC1)C[C@]13CCN(CC1)C(=O)c1ccc(cc1)F | inactive: 0.977 |
| C[C@@H]1CN([C@H](C)CO)C(=O)c2cc(NC(=O)Nc3ccccc3)ccc2O[C@H]1CN(C)Cc1ccc(-c2ccccc2)cc1 | inactive: 1.03 |
| Cc1noc(C)c1NC(=O)Nc1ccc2c(c1)CC(=O)N([C@@H](C)CO)C[C@H](C)[C@H](CN(C)S(=O)(=O)c1cccs1)O2 | inactive: 0.981 |
| O=C(O)CCCNC(=O)c1cccnc1 | inactive: 0.982 |
| O=C(C[C@@H]1CC[C@H](NC(=O)C2CC2)[C@H](CO)O1)NCCCN1CCOCC1 | inactive: 1.02 |
| COc1ccc(NC(=O)Nc2ccc3c(c2)C(=O)N([C@@H](C)CO)C[C@H](C)[C@@H](CN(C)C(=O)NC2CCCCC2)OCCCC[C@H](C)O3)cc1 | inactive: 1 |
| C[C@H](CO)N1C[C@H](C)[C@H](CN(C)Cc2ccc(Cl)c(Cl)c2)OCCCC[C@H](C)Oc2ccc(NS(=O)(=O)c3ccc(F)cc3)cc2C1=O | inactive: 1.03 |
| CC(C)N1C[C@H](CNCc2ccc(Oc3ccccc3)cc2)Oc2c(NC(=O)c3ccncc3)cccc2C1=O | inactive: 1.03 |
| Cc1noc(C)c1NC(=O)N(C)C[C@H]1Oc2c(NS(=O)(=O)c3ccccc3)cccc2C(=O)N([C@@H](C)CO)C[C@H]1C | inactive: 0.969 |
| CO[C@H]1CN(C)C(=O)c2ccc(NC(=O)C3CC3)cc2OC[C@H](C)N(C(=O)Cc2ccccn2)C[C@H]1C | inactive: 0.988 |
| CC(C)NC(=O)N(C)C[C@@H]1OCCCC[C@H](C)Oc2ccc(NC(=O)Nc3ccc(F)cc3)cc2C(=O)N([C@H](C)CO)C[C@@H]1C | inactive: 0.99 |
| O=C(O)Cn1ccccc1=O | inactive: 1.01 |
| C[C@@H]1CCCCO[C@@H](CN(C)C(=O)Nc2ccc(C(F)(F)F)cc2)[C@H](C)CN([C@H](C)CO)C(=O)c2cc(NS(C)(=O)=O)ccc2O1 | inactive: 0.939 |
| COc1ccc(NC(=O)N(C)C[C@@H]2OCCCC[C@@H](C)Oc3ccc(NC(=O)NC4CCCCC4)cc3C(=O)N([C@@H](C)CO)C[C@H]2C)cc1 | inactive: 1.01 |
| COc1ccc(S(=O)(=O)N(C)C[C@H]2OCCCC[C@H](C)Oc3ccc(NS(C)(=O)=O)cc3C(=O)N([C@@H](C)CO)C[C@@H]2C)cc1 | inactive: 1.02 |
| COc1ccc(CC(N)C(=O)NC2C(CO)OC(n3cnc4c(N(C)C)ncnc43)C2O)cc1.Cl.Cl (configuration not stated) | inactive: 0.717 |
| CC(C)(C)[S@@+]([O-])N1Cc2cc(C(=O)NCc3ccc4c(c3)OCO4)nc(-c3ccc(-c4ccc(C#N)cc4)cc3)c2[C@H]1CCO | inactive: 1.03 |
| N#CCNC(=O)CN1C(=O)c2ccccc2C1=O | inactive: 1.02 |
| CC(C)NC(=O)N(C)C[C@H]1Oc2ccc(NC(=O)Nc3ccc4c(c3)OCO4)cc2C(=O)N([C@@H](C)CO)C[C@@H]1C | inactive: 0.989 |
| COc1ccc(CN(C)C[C@H]2Oc3ccc(NS(=O)(=O)c4cn(C)cn4)cc3CC(=O)N([C@H](C)CO)C[C@@H]2C)cc1 | inactive: 0.917 |

| Structure (SMILES) | relative growth |
| --- | --- |
| Cc1noc(C)c1NC(=O)Nc1ccc2c(c1)C(=O)N([C@@H](C)CO)C[C@@H](C)[C@H](CN(C)S(=O)(=O)c1cn(C)cn1)O2 | inactive: 0.976 |
| CNC(=O)C[C@@H]1CC[C@H]2[C@H](COc3ccc(NC(=O)c4ccc(C(F)(F)F)cc4)cc3C(=O)N2C)O1 | inactive: 0.987 |
| C[C@@H]1CN([C@H](C)CO)C(=O)c2cccc(NC(=O)Nc3ccc(F)cc3)c2O[C@@H]1CN(C)S(C)(=O)=O | inactive: 0.95 |
| O=c1[nH][nH]c(=S)n1C1CC1 | inactive: 0.98 |
| COCC(=O)N(C)C[C@H]1Oc2cc(-c3ccc(OC)cc3)ccc2S(=O)(=O)N([C@@H](C)CO)C[C@@H]1C | inactive: 0.991 |
| COc1cc(O)c2c(=O)c(O)c(-c3ccccc3)oc2c1 | inactive: 1.02 |
| COc1ccc(NC(=O)Nc2ccc3c(c2)C(=O)N([C@H](C)CO)C[C@@H](C)[C@H](CN(C)C(=O)Nc2cccc4ccccc24)O3)cc1 | inactive: 0.88 |
| COc1ccc(NC(=O)N(C)C[C@@H]2OCCCC[C@H](C)Oc3ccc(NC(=O)C4CCCCC4)cc3C(=O)N([C@@H](C)CO)C[C@@H]2C)cc1 | inactive: 0.987 |
| COc1ccc(NC(=O)Nc2ccc3c(c2)C(=O)N([C@H](C)CO)C[C@@H](C)[C@H](CN(C)S(=O)(=O)c2ccc(OC)cc2)OCCCC[C@@H](C)O3)cc1 | inactive: 1.06 |
| COc1ccccc1S(=O)(=O)N(C)C[C@H]1OCc2cn(nn2)CCCC(=O)N([C@H](C)CO)C[C@H]1C | inactive: 0.996 |
| CC(C)N1C[C@H](C)[C@@H](CN(C)Cc2ccc(Cl)c(Cl)c2)Oc2c(cccc2-c2nnc(-c3ccncc3)o2)C1=O | inactive: 0.889 |
| C[C@H]1CN([C@@H](C)CO)S(=O)(=O)c2ccc(-c3cncnc3)cc2O[C@@H]1CN(C)C(=O)Cc1cccnc1 | inactive: 1.02 |
| COc1ccc(NC(=O)N(C)C[C@H]2OCCCC[C@H](C)Oc3ccc(NC(=O)Nc4ccc5c(c4)OCO5)cc3C(=O)N([C@@H](C)CO)C[C@H]2C)cc1 | inactive: 1 |
| O=C(C[C@@H]1CC[C@@H]2[C@H](COC[C@@H](O)CN2Cc2ccccc2F)O1)N[C@H]1CCN(Cc2ccccc2)C1 | inactive: 0.985 |
| CNC[C@H]1Oc2cc(C#CCN(C)C)ccc2S(=O)(=O)N([C@@H](C)CO)C[C@H]1C | inactive: 1.02 |
| Cc1ccc(S(=O)(=O)Nc2ccc3c(c2)C(=O)N([C@H](C)CO)C[C@@H](C)[C@@H](CN(C)Cc2ccc(C(F)(F)F)cc2)O3)cc1 | inactive: 1.04 |
| O=C(C[C@H]1CC[C@H]2[C@@H](COC[C@@H](O)CN2C(=O)c2ccc(F)cc2)O1)NCCCN1CCOCC1 | inactive: 0.988 |
| NC(=O)C[C@H]1Nc2ccccc2NC1=O | inactive: 0.985 |
| C[C@@H]1CN([C@H](C)CO)C(=O)c2cc(NC(=O)Cc3ccccc3)ccc2O[C@@H](C)CCCCO[C@@H]1CN(C)Cc1ccncc1 | inactive: 0.888 |
| C[C@@H]1CN([C@@H](C)CO)C(=O)c2cc(NC(=O)Nc3ccccc3)ccc2O[C@@H](C)CCCCO[C@@H]1CN(C)CC1CCCCC1 | inactive: 0.942 |
